We go through 20 molecules from US11178870B2 (priority 2017, dated 2021).

Molecules are shown by their SMILES.

What all share (assay type): in vivo
Assay [1] has as its system Blumeria graminis f. sp. hordei. The assay is described as follows: Test Example D: Powdery mildew on barley. Conditions: Powdery mildew on barley.
Assay [2] relates to Puccinia recondita. The assay is described as follows: Test Example E: Brown rust on wheat. Conditions: Brown rust on wheat.
The test system of assay [3] is Plasmopara viticola. The assay is described as follows: Test Example G: Downy mildew on vine. Conditions: Downy mildew on vine; 250 ppm sprayed, 2.5 ml/pot; 7 to 10 days after inoculation.
Assay [4] relates to Alternaia brassicicola. Put plainly: Test Example C: Alternaria sooty spot on cabbage. Conditions: Alternaria sooty spot on cabbage.
Assay [5] relates to Botrytis cinerea. The assay is described as follows: Test Example B: Gray mold on tomato. Conditions: Gray mold on tomato.

Turning to `CCn1c(-c2c(F)cc(F)cc2F)c(-n2cc([N+](=O)[O-])cn2)cc(Cl)c1=O` [Compound 161], the “Test D control value” in assay [1] is recorded as “L (L shows the control value of 50% or less)”. In assay [2], the “Test E control value” is on record as “H (H shows the control value more than 50%)”. For the same molecule, the “Test G control value” in assay [3] is on record as “L (L shows the control value of 50% or less)”. In assay [4], the “Test C control value” is recorded as “H (H shows the control value more than 50%)”. In addition, in assay [5], the “Test B control value” is given as “H (H shows the control value more than 50%)”.
`CCn1c(-c2c(F)cccc2F)c(-c2ncc(OC)o2)cc(Cl)c1=O` [Compound 162]: the “Test D control value” in assay [1] is recorded as “L (L shows the control value of 50% or less)”. In addition, in assay [2], the “Test E control value” is “L (L shows the control value of 50% or less)”. Further, the “Test G control value” in assay [3] is listed as “H (H shows the control value more than 50%)”. In assay [4], the “Test C control value” was “L (L shows the control value of 50% or less)”. The “Test B control value” in assay [5] is reported as “L (L shows the control value of 50% or less)”.
`CCn1c(-c2c(F)cc(F)cc2F)c(-n2cc(NC(C)=O)cn2)cc(Cl)c1=O` [Compound 163]: the “Test D control value” in assay [1] was “L (L shows the control value of 50% or less)”. The “Test E control value” in assay [2] is “L (L shows the control value of 50% or less)”. Also, the “Test G control value” in assay [3] is on record as “H (H shows the control value more than 50%)”. Moreover, the “Test C control value” in assay [4] is on record as “L (L shows the control value of 50% or less)”. The “Test B control value” in assay [5] is “L (L shows the control value of 50% or less)”.
Take `CCn1c(-c2ccc(F)cc2Br)c(-n2cc(Cl)cn2)ccc1=O` [Compound 164]: the “Test D control value” in assay [1] was “H (H shows the control value more than 50%)”. The “Test E control value” in assay [2] is “H (H shows the control value more than 50%)”. In assay [3], the “Test G control value” was “L (L shows the control value of 50% or less)”. Besides, the “Test C control value” in assay [4] is recorded as “H (H shows the control value more than 50%)”. In addition, the “Test B control value” in assay [5] is reported as “H (H shows the control value more than 50%)”.
For the molecule `CCn1c(-c2ccc(F)cc2Br)c(-n2cc(Cl)cn2)cc(Cl)c1=O` [Compound 165], in assay [1], the “Test D control value” was “H (H shows the control value more than 50%)”. Moreover, in assay [2], the “Test E control value” is reported as “H (H shows the control value more than 50%)”. Further, in assay [3], the “Test G control value” is on record as “L (L shows the control value of 50% or less)”. The “Test C control value” in assay [4] is “H (H shows the control value more than 50%)”. For the same molecule, the “Test B control value” in assay [5] is “H (H shows the control value more than 50%)”.
Turning to `CCn1c(-c2ccc(F)cc2Br)c(-n2cc(Cl)cn2)cc(Br)c1=O` [Compound 166], in assay [1], the “Test D control value” is on record as “L (L shows the control value of 50% or less)”. The “Test E control value” in assay [2] is “H (H shows the control value more than 50%)”. Moreover, in assay [3], the “Test G control value” is on record as “H (H shows the control value more than 50%)”. The “Test C control value” in assay [4] was “H (H shows the control value more than 50%)”. Further, the “Test B control value” in assay [5] is reported as “H (H shows the control value more than 50%)”.
For the molecule `CCn1c(-c2ccc(OC)cc2Br)c(-n2cc(Cl)cn2)cc(Cl)c1=O` [Compound 167], the “Test D control value” in assay [1] was “L (L shows the control value of 50% or less)”. In addition, the “Test E control value” in assay [2] is given as “H (H shows the control value more than 50%)”. In assay [3], the “Test G control value” is listed as “H (H shows the control value more than 50%)”. The “Test C control value” in assay [4] is “H (H shows the control value more than 50%)”. Further, the “Test B control value” in assay [5] is listed as “H (H shows the control value more than 50%)”.
For the molecule `CCn1c(-c2ccc(F)cc2C)c(-n2cc(Cl)cn2)ccc1=O` [Compound 168], the “Test D control value” in assay [1] is reported as “H (H shows the control value more than 50%)”. In assay [2], the “Test E control value” was “H (H shows the control value more than 50%)”. Also, the “Test G control value” in assay [3] is given as “L (L shows the control value of 50% or less)”. Further, the “Test C control value” in assay [4] is reported as “H (H shows the control value more than 50%)”. In assay [5], the “Test B control value” is “L (L shows the control value of 50% or less)”.
Take `CCn1c(-c2ccccc2Cl)c(-n2cc(Cl)cn2)ccc1=O` [Compound 169]: the “Test D control value” in assay [1] is given as “H (H shows the control value more than 50%)”. In addition, the “Test E control value” in assay [2] was “H (H shows the control value more than 50%)”. Further, the “Test G control value” in assay [3] is “L (L shows the control value of 50% or less)”. Moreover, the “Test C control value” in assay [4] is “H (H shows the control value more than 50%)”. For the same molecule, the “Test B control value” in assay [5] is listed as “H (H shows the control value more than 50%)”.
For `CCn1c(-c2ccc(F)cc2C)c(-n2cc(Cl)cn2)cc(Cl)c1=O` [Compound 170], the “Test D control value” in assay [1] is listed as “L (L shows the control value of 50% or less)”. In assay [2], the “Test E control value” is “L (L shows the control value of 50% or less)”. The “Test G control value” in assay [3] is reported as “L (L shows the control value of 50% or less)”. In addition, the “Test C control value” in assay [4] is on record as “H (H shows the control value more than 50%)”. In assay [5], the “Test B control value” is “L (L shows the control value of 50% or less)”.
Take `CCn1c(-c2ccc(F)cc2C)c(-n2cc(Cl)cn2)cc(Br)c1=O` [Compound 171]: the “Test D control value” in assay [1] was “L (L shows the control value of 50% or less)”. The “Test E control value” in assay [2] is “L (L shows the control value of 50% or less)”. Further, the “Test G control value” in assay [3] was “L (L shows the control value of 50% or less)”. The “Test C control value” in assay [4] is “L (L shows the control value of 50% or less)”. Further, the “Test B control value” in assay [5] is on record as “L (L shows the control value of 50% or less)”.
For `CCn1c(-c2ccccc2Cl)c(-n2cc(Cl)cn2)cc(Cl)c1=O` [Compound 172], in assay [1], the “Test D control value” is given as “L (L shows the control value of 50% or less)”. For the same molecule, in assay [2], the “Test E control value” was “H (H shows the control value more than 50%)”. Moreover, the “Test G control value” in assay [3] is reported as “L (L shows the control value of 50% or less)”. Also, in assay [4], the “Test C control value” is reported as “H (H shows the control value more than 50%)”. In addition, the “Test B control value” in assay [5] is on record as “H (H shows the control value more than 50%)”.
For `CCn1c(-c2ccccc2Cl)c(-n2cc(Cl)cn2)cc(Br)c1=O` [Compound 173], the “Test D control value” in assay [1] is “H (H shows the control value more than 50%)”. Further, the “Test E control value” in assay [2] was “H (H shows the control value more than 50%)”. Moreover, the “Test G control value” in assay [3] is listed as “L (L shows the control value of 50% or less)”. Further, in assay [4], the “Test C control value” is reported as “H (H shows the control value more than 50%)”. Also, the “Test B control value” in assay [5] is given as “H (H shows the control value more than 50%)”.
On to `Cn1c(-c2c(F)cc(F)cc2F)c(-n2cc(Cl)cn2)cc(Cl)c1=O` [Compound 175], for which the “Test D control value” in assay [1] was “H (H shows the control value more than 50%)”. In addition, the “Test E control value” in assay [2] was “H (H shows the control value more than 50%)”. In addition, the “Test G control value” in assay [3] is given as “L (L shows the control value of 50% or less)”. Further, the “Test C control value” in assay [4] is on record as “H (H shows the control value more than 50%)”. For the same molecule, the “Test B control value” in assay [5] is “H (H shows the control value more than 50%)”.
As to `Cn1c(-c2c(F)cc(F)cc2F)c(-n2cc(Cl)cn2)cc(Br)c1=O` [Compound 176], in assay [1], the “Test D control value” is “H (H shows the control value more than 50%)”. The “Test E control value” in assay [2] was “H (H shows the control value more than 50%)”. The “Test G control value” in assay [3] is reported as “L (L shows the control value of 50% or less)”. The “Test C control value” in assay [4] is on record as “H (H shows the control value more than 50%)”. In addition, in assay [5], the “Test B control value” was “H (H shows the control value more than 50%)”.
Take `COc1cc(F)c(-c2c(-n3cc(Cl)cn3)cc(Cl)c(=O)n2C)c(F)c1` [Compound 177]: in assay [1], the “Test D control value” was “H (H shows the control value more than 50%)”. Further, in assay [2], the “Test E control value” is listed as “H (H shows the control value more than 50%)”. Further, the “Test G control value” in assay [3] is “H (H shows the control value more than 50%)”. Further, the “Test C control value” in assay [4] was “H (H shows the control value more than 50%)”. Besides, the “Test B control value” in assay [5] is recorded as “H (H shows the control value more than 50%)”.
For the molecule `COc1cc(F)c(-c2c(-n3cc(Cl)cn3)cc(Br)c(=O)n2C)c(F)c1` [Compound 178], the “Test D control value” in assay [1] is given as “H (H shows the control value more than 50%)”. Besides, the “Test E control value” in assay [2] was “H (H shows the control value more than 50%)”. In assay [3], the “Test G control value” was “H (H shows the control value more than 50%)”. Moreover, the “Test C control value” in assay [4] was “H (H shows the control value more than 50%)”. Further, the “Test B control value” in assay [5] is reported as “H (H shows the control value more than 50%)”.
On to `CCn1c(-c2ccccc2Cl)c(-n2ncc(C)c2Cl)cc(Cl)c1=O` [Compound 179], for which the “Test D control value” in assay [1] was “H (H shows the control value more than 50%)”. In assay [2], the “Test E control value” is “H (H shows the control value more than 50%)”. Besides, the “Test G control value” in assay [3] is listed as “H (H shows the control value more than 50%)”. Also, the “Test C control value” in assay [4] is “H (H shows the control value more than 50%)”. The “Test B control value” in assay [5] is given as “H (H shows the control value more than 50%)”.
In the case of `CCn1c(-c2ccccc2Cl)c(-n2cc(C)cn2)cc(Br)c1=O` [Compound 180], in assay [1], the “Test D control value” is “H (H shows the control value more than 50%)”. Moreover, in assay [2], the “Test E control value” was “H (H shows the control value more than 50%)”. Moreover, the “Test G control value” in assay [3] was “L (L shows the control value of 50% or less)”. Besides, in assay [4], the “Test C control value” is given as “H (H shows the control value more than 50%)”. The “Test B control value” in assay [5] is reported as “H (H shows the control value more than 50%)”.
Regarding `CCn1c(-c2ccccc2Cl)c(-n2ncc(C)c2Cl)cc(Br)c1=O` [Compound 181], the “Test D control value” in assay [1] was “H (H shows the control value more than 50%)”. In assay [2], the “Test E control value” was “H (H shows the control value more than 50%)”. Also, the “Test G control value” in assay [3] is reported as “H (H shows the control value more than 50%)”. Besides, the “Test C control value” in assay [4] is “H (H shows the control value more than 50%)”. Besides, the “Test B control value” in assay [5] is “H (H shows the control value more than 50%)”.
